Assay results reported in patent US20250163048A1 (Tango Therapeutics, Inc., priority 2022, published 2025).

Legend:
[1] = test system: HAP1 MTAP-deleted cell line; experiment: SDMA in-cell western assay, HAP1 MTAP-deleted; details: for IC50 / IC90: Homo sapiens; for Hap1 MTAP intact/deleted ratio: IC50 ratio between HAP1 MTAP-intact and HAP1 MTAP-deleted cell line
[2] = test system: HAP1 MTAP-intact cell line; experiment: SDMA in-cell western assay, HAP1 MTAP-intact; details: Homo sapiens
[3] = test system: MTAP-deleted cell line; experiment: viability assay for the MTAP-deleted cell line; format: cell-based; details: Homo sapiens, HAP1, viability assay
[4] = HAP1, read-out: Hap1 MTAP deleted IC50, SDMA in-cell western, HAP1 MTAP-deleted cell line
[5] = HAP1, read-out: Hap1 MTAP deleted IC90, SDMA in-cell western, HAP1 MTAP-deleted cell line
[6] = HAP1, read-out: Hap1 MTAP intact IC50, SDMA in-cell western, HAP1 MTAP-intact cell line
[7] = HAP1, read-out: Hap1 MTAP intact IC50
[8] = HAP1, read-out: Hap1 MTAP deleted IC50, SDMA in-cell western assay, HAP1 MTAP-deleted cell line
[9] = HAP1, read-out: Hap1 MTAP deleted IC90, SDMA in-cell western assay, HAP1 MTAP-deleted cell line
[10] = HAP1, read-out: Hap1 MTAP intact IC50, SDMA in-cell western assay, HAP1 MTAP-intact cell line

Row | Structure (SMILES) | IC50 [1, 4] [nM] | IC90 [1, 5] [nM] | Hap1 MTAP intact/deleted ratio ([1]; SDMA in-cell western) | IC50 [2, 6] [nM] | IC50 [3] [nM] | IC50 [2, 7] [nM] | IC50 [1, 8] [nM] | IC90 [1, 9] [nM] | Hap1 MTAP intact/deleted ratio ([1]; SDMA in-cell western assay) | IC50 [2, 10] [nM]
1 | C[C@H]1CC[C@H](c2ccc3sc(C[C@H](C)N4CCCC4)nc3c2)N(C(=O)C(=O)Nc2cncc3cn[nH]c23)C1 [Compound 136, 2-((2R,5S)-5-methyl-2-(2-(2-(pyrrolidin-1-yl)propyl)benzo[d]thiazol-5-yl)piperidin-1-yl)-2-oxo-N-(1H-pyrazolo[4,3-c]pyridin-7-yl)acetamide] | < 5 | < 75 | A (“A” indicates an IC50 ratio greater than or equal to 30 fold) | > 50 | < 100 | – | – | – | – | –
2 | C[C@H]1CC[C@H](c2ccc(CN(C)C)cc2)N(C(=O)C(=O)Nc2cnc(N)c3cn[nH]c23)C1 [Compound 154, N-(4-amino-1H-pyrazolo[4,3-c]pyridin-7-yl)-2-((2R,5S)-2-(4-((dimethylamino)methyl)phenyl)-5-methylpiperidin-1-yl)-2-oxoacetamide] | < 5 | < 75 | B (“B” indicates an IC50 ratio greater than or equal to 15 fold but lower than 30 fold) | > 50 | < 100 | – | – | – | – | –
3 | [2H]C([2H])([2H])N1CCC(c2nc3cc([C@H]4CC[C@H](C)CN4C(=O)C(=O)Nc4cncc5cn[nH]c45)ccc3s2)CC1 (racemic) [Compound 119, 2-oxo-N-(1H-pyrazolo[4,3-c]pyridin-7-yl)-2-[rac-(5S)-5-methyl-2-[2-[1-(trideuteriomethyl)-4-piperidyl]-1,3-benzothiazol-5-yl]-1-piperidyl]acetamide] | < 5 | < 75 | B (“B” indicates an IC50 ratio greater than or equal to 15 fold but lower than 30 fold) | – | < 100 | 5 to 50 | – | – | – | –
4 | C[C@H]1CC[C@H](c2ccc3sc([C@@H]4CCN(C)C[C@H]4C)nc3c2)N(C(=O)C(=O)Nc2ccn3ccnc3c2)C1 (relative stereo) [Compound 23, N-imidazo[1,2-a]pyridin-7-yl-2-oxo-2-[(2R,5S)-5-methyl-2-[2-[rel-(3S,4R)-1,3-dimethyl-4-piperidyl]-1,3-benzothiazol-5-yl]-1-piperidyl]acetamide] | < 5 | < 75 | A (“A” indicates an IC50 ratio greater than or equal to 30 fold) | > 50 | < 100 | – | – | – | – | –
5 | C[C@H]1CC[C@H](c2ccc3sc([C@H](C)N(C)C)nc3c2)N(C(=O)C(=O)Nc2cncc3cn[nH]c23)C1 (single isomer, unassigned) [Compound 153] | < 5 | < 75 | B (“B” indicates an IC50 ratio greater than or equal to 15 fold but lower than 30 fold) | > 50 | < 100 | – | – | – | – | –
6 | CCOc1cc([C@H]2CC[C@H](C)CN2C(=O)C(=O)Nc2cnc(N)c3cn[nH]c23)ccn1 (racemic) [Compound 187, N-(4-Amino-2H-pyrazolo[4,3-c]pyridin-7-yl)-2-oxo-2-[rac-(2R,5S)-2-(2-ethoxy-4-pyridyl)-5-methyl-1-piperidyl]acetamide] | < 5 | < 75 | A (“A” indicates an IC50 ratio greater than or equal to 30 fold) | 5 to 50 | < 100 | – | – | – | – | –
7 | C[C@H]1CC[C@H](c2ccc3scnc3c2)N(C(=O)C(=O)Nc2cnc(N)c3c2COC3)C1 (racemic) [Compound 200, N-(4-amino-1,3-dihydrofuro[3,4-c]pyridin-7-yl)-2-oxo-2-[rac-(2R,5S)-2-(1,3-benzothiazol-5-yl)-5-methyl-1-piperidyl]acetamide] | – | – | – | – | < 100 | > 50 | < 5 | < 75 | B (“B” indicates an IC50 ratio greater than or equal to 15 fold but lower than 30 fold) | –
8 | C[C@H]1CC[C@H](c2ccc3nn(C4CCN(C)CC4)cc3c2)N(C(=O)C(=O)Nc2ccn3ccnc3c2)C1 [Compound 15, N-imidazo[1,2-a]pyridin-7-yl-2-oxo-2-[(2R,5S)-5-methyl-2-[2-(1-methyl-4-piperidyl)indazol-5-yl]-1-piperidyl]acetamide] | < 5 | – | A (“A” indicates an IC50 ratio greater than or equal to 30 fold) | > 50 | < 100 | – | – | – | – | –
9 | C[C@H]1CC[C@H](c2cccc(CCN(C)C)c2)N(C(=O)C(=O)Nc2cnc(N)c3cn[nH]c23)C1 (racemic) [Compound 230, N-(4-Amino-1H-pyrazolo[4,3-c]pyridin-7-yl)-2-oxo-2-[rac-(2R,5S)-2-[3-[2-(dimethylamino)ethyl]phenyl]-5-methyl-1-piperidyl]acetamide] | – | – | – | – | < 100 | – | 5 to 50 | < 75 | C (“C” indicates an IC50 ratio of less than 15 fold) | > 50
10 | C[C@H]1CC[C@H](c2ccc3sc(C4CCN(C5CC5)CC4)nc3c2)N(C(=O)C(=O)Nc2cncc3cn[nH]c23)C1 [Compound 131, 2-((2R,5S)-2-(2-(1-cyclopropylpiperidin-4-yl)benzo[d]thiazol-5-yl)-5-methylpiperidin-1-yl)-2-oxo-N-(1H-pyrazolo[4,3-c]pyridin-7-yl)acetamide] | < 5 | < 75 | C (“C” indicates an IC50 ratio of less than 15 fold) | 5 to 50 | < 100 | – | – | – | – | –
11 | C[C@H]1CC[C@@H](c2ccnn2C)N(C(=O)C(=O)Nc2cnc(N)c3cn[nH]c23)C1 (stereo in doubt) [Compound 250, N-(4-Amino-1H-pyrazolo[4,3-c]pyridin-7-yl)-2-oxo-2-[rac-(2S,5S)-5-methyl-2-(2-methylpyrazol-3-yl)-1-piperidyl]acetamide] | – | – | – | – | < 100 | – | < 5 | < 75 | B (“B” indicates an IC50 ratio greater than or equal to 15 fold but lower than 30 fold) | 5 to 50
12 | CC(CN(C)C)c1nc2cc([C@H]3CC[C@H](C)CN3C(=O)C(=O)Nc3cnc(N)c4cn[nH]c34)ccc2s1 (stereo partly drawn) [Compound 35, N-(4-amino-1H-pyrazolo[4,3-c]pyridin-7-yl)-2-((2R,5S)-2-(2-(1-(dimethylamino)propan-2-yl)benzo[d]thiazol-5-yl)-5-methylpiperidin-1-yl)-2-oxoacetamide] | < 5 | < 75 | C (“C” indicates an IC50 ratio of less than 15 fold) | 5 to 50 | < 100 | – | – | – | – | –
13 | C[C@H]1CC[C@H](c2ccc(F)cc2)N(C(=O)C(=O)Nc2cnc(N)c3cn[nH]c23)C1 [Compound 101, N-(4-amino-1H-pyrazolo[4,3-c]pyridin-7-yl)-2-((2R,5S)-2-(4-fluorophenyl)-5-methylpiperidin-1-yl)-2-oxoacetamide] | < 5 | < 75 | B (“B” indicates an IC50 ratio greater than or equal to 15 fold but lower than 30 fold) | 5 to 50 | < 100 | – | – | – | – | –
14 | C[C@H]1CC[C@H](c2ccc3sc(C4CCN(C)CC4)nc3c2)N(C(=O)C(=O)Nc2cnc3c(c2)C(=O)NCC3)C1 [Compound 55, 2-((2R,5S)-5-methyl-2-(2-(1-methylpiperidin-4-yl)benzo[d]thiazol-5-yl)piperidin-1-yl)-2-oxo-N-(5-oxo-5,6,7,8-tetrahydro-1,6-naphthyridin-3-yl)acetamide] | < 5 | < 75 | C (“C” indicates an IC50 ratio of less than 15 fold) | 5 to 50 | < 100 | – | – | – | – | –
15 | Cc1ccc([C@H]2CC[C@H](C)CN2C(=O)C(=O)Nc2cnc(N)c3cn[nH]c23)cn1 [Compound 172, N-(4-amino-1H-pyrazolo[4,3-c]pyridin-7-yl)-2-oxo-2-[(2R,5S)-5-methyl-2-(6-methyl-3-pyridyl)-1-piperidyl]acetamide] | < 5 | < 75 | A (“A” indicates an IC50 ratio greater than or equal to 30 fold) | > 50 | < 100 | – | – | – | – | –
16 | C[C@H]1CC[C@H](c2ccc3sc(C4CCN(C)CC4)nc3c2)N(C(=O)C(=O)Nc2cnc3[nH]cnc3c2)C1 [Compound 69, N-(3H-imidazo[4,5-b]pyridin-6-yl)-2-((2R,5S)-5-methyl-2-(2-(1-methylpiperidin-4-yl)benzo[d]thiazol-5-yl)piperidin-1-yl)-2-oxoacetamide] | 5 to 50 | – | A (“A” indicates an IC50 ratio greater than or equal to 30 fold) | > 50 | < 100 | – | – | – | – | –
17 | C[C@H]1CC[C@H](c2ccc3sc(C4CN(C)C4)nc3c2)N(C(=O)C(=O)Nc2cncc3c(N)nccc23)C1 [Compound 53, N-(8-amino-2,7-naphthyridin-4-yl)-2-((2R,5S)-5-methyl-2-(2-(1-methylazetidin-3-yl)benzo[d]thiazol-5-yl)piperidin-1-yl)-2-oxoacetamide] | 5 to 50 | > 125 | A (“A” indicates an IC50 ratio greater than or equal to 30 fold) | > 50 | < 100 | – | – | – | – | –
18 | C[C@H]1CC[C@H](c2ccc3cn(C4CC4)nc3c2)N(C(=O)C(=O)Nc2cnc(N)c3cn[nH]c23)C1 (racemic) [Compound 284, N-(4-Amino-1H-pyrazolo[4,3-c]pyridin-7-yl)-2-oxo-2-[rac-(2R,5S)-2-(2-cyclopropylindazol-6-yl)-5-methyl-1-piperidyl]acetamide] | – | – | – | – | < 100 | – | < 5 | < 75 | C (“C” indicates an IC50 ratio of less than 15 fold) | < 5

Like-named read-outs stand apart in the source and are kept apart here.
